Data published in the supplement of paper PMC9433436.
± gives the standard deviation of the averaged measurements. Whole data set: some 4,100 sequences, median “relative kcat/Km (krel) vs genomic leader AAAGAU” near 1.7, cut for the highest 2% near 6.5. Only a part is listed here, and it is no random draw.

Molecular target: T1, E. coli RNase P holoenzyme (M1 P RNA + rnpA protein) (UniProt P0A7Y8)
T1 sequence: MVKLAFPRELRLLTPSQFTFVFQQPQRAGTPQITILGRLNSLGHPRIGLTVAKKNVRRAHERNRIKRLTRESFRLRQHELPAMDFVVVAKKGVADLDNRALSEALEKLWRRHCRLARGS
Assay: relative kcat/Km (krel) vs genomic leader AAAGAU (relative (reference leader = 1)); higher = faster RNase P cleavage
Protocol: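 HTS-Kin: a pool of ptRNA-Met (21C construct) with all 4096 combinations of 5' leader nucleotides N(-6) to N(-1) was processed in vitro by E. coli RNase P (P RNA + rnpA/C5 protein) under multiple-turnover conditions at 37 C, pH 8, 17.5 mM MgCl2. Residual substrate was Illumina-sequenced at several fractions reacted, and relative kcat/Km (krel) was computed by internal competition kinetics, calibrated to the genomic leader (AAAGAU = 1). The listed hexamer is the varied N(-6)..N(-1) leader (DNA letters), and it sits between a fixed 5' stem-loop flank (GCAUGCACGAAAGUGCGUGCUAUGAA) and the mature tRNA-Met starting GGCUACGUAGCUCAGUUGG. Two technical replicates are averaged.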

[1] = fraction of substrate reacted: ~9-10% (9.79% repeat 1, 9.1% repeat 2)
[2] = fraction of substrate reacted: ~13-16% (15.68% repeat 1, 13.17% repeat 2)
[3] = fraction of substrate reacted: ~26-29% (28.66% repeat 1, 26.4% repeat 2)

Sequence | relative kcat/Km [1] | relative kcat/Km [2] | relative kcat/Km [3]
TCGGCC | 0.664 ± 0.36 | 1.1 ± 0.77 | 0.76 ± 0.27
CTGGCC |  | 0.507 ± 0.38 | 
GGACGC | 1.85 ± 0.16 | 1.99 ± 1.2 | 2.74 ± 0.9
TAGATG |  |  | 1.34 ± 0.28
GATGTC |  | 1.01 ± 0.36 | 0.94 ± 0.016
CCCCTA | 1.56 ± 0.18 | 2.01 ± 0.17 | 2.8 ± 0.9
CGTAAG | 2.41 ± 1.1 | 2 ± 0.73 | 3.38 ± 0.66
GATAGC | 1.91 ± 0.41 | 2.11 ± 0.058 | 2.9 ± 1.1
TCTACT | 2.22 ± 1.3 | 1.61 ± 0.15 | 2.55 ± 0.53
GCGAAA | 2.4 ± 0.62 | 1.36 ± 0.072 | 2.16 ± 0.076
GAGAAC |  | 2.42 ± 0.091 | 3.29 ± 0.67
TCGCCT | 1.77 ± 0.043 | 2.41 ± 0.9 | 3.13 ± 1.1
CGCTCA | 3.76 ± 1.1 | 3.59 ± 1.8 | 4.4 ± 1.5
TAGCGC | 1.86 ± 0.53 | 1.68 ± 0.48 | 2.29 ± 1.1
ACGACT | 0.558 ± 0.33 | 0.742 ± 0.21 | 1.07 ± 0.13
ACCCGA | 3.55 ± 0.39 | 4.06 ± 0.66 | 5.44 ± 1.5
TAGACG | 0.864 ± 0.52 | 0.847 ± 0.36 | 1.52 ± 0.046
GAGCCC | 1.48 ± 0.67 | 1.31 ± 1.3 | 1.78 ± 0.8
AACGTT | 0.929 ± 0.44 | 1.67 ± 0.47 | 1.77 ± 0.52
GTGTTG |  |  | 0.805 ± 0.08
TTGGGA | 1.09 ± 0.89 |  | 2.06 ± 1.8
CGCGTC | 2.1 ± 1.4 | 1.92 ± 0.16 | 1.6 ± 0.28
TCCCAC | 4.44 ± 1.1 | 5.53 ± 1.1 | 7.79 ± 3
CCTCAG |  | 1.23 ± 0.065 | 1.83 ± 0.32
CCGGGA | 0.744 ± 0.73 |  | 0.729 ± 0.063
GCGCAA | 1.57 ± 0.93 | 1.43 ± 0.47 | 2.1 ± 0.36

Sequence | relative kcat/Km [1] | relative kcat/Km [2] | relative kcat/Km [3]
CGGGCA | 1.28 ± 0.55 | 0.965 ± 0.75 | 0.825 ± 0.17
ATCGGC |  |  | 1.97 ± 1.5
CGCAAC | 2.82 ± 1.1 | 2.42 ± 0.63 | 4.11 ± 1.6
GGCTGT | 0.764 ± 0.28 | 1.3 ± 1 | 1.42 ± 0.93
TGCATC | 2.12 ± 1.2 | 1.5 ± 0.48 | 2.05 ± 0.7
AGAGCT | 0.812 ± 0.35 | 1.11 ± 0.015 | 1.09 ± 0.054
AGCGCA | 2.02 ± 0.99 | 2.06 ± 0.52 | 3.01 ± 0.81
ATCCAG | 1.67 ± 0.93 | 1.77 ± 0.18 | 3.83 ± 0.61
ATTAAT | 3.16 ± 1.7 | 3.1778 ± 0.0021 | 4.5 ± 1.7
TCGGAT |  |  | 1.48 ± 1.2
GGATAT | 1.83 ± 0.13 | 2.63 ± 0.49 | 3.4 ± 1.9
GTCTAA | 4.58 ± 0.43 | 7.55 ± 1.7 | 10.1 ± 4.8
CAAGAT | 1.15 ± 0.24 | 0.704 ± 0.019 | 1.49 ± 0.33
AGGATT |  | 1.16 ± 0.83 | 1.39 ± 0.82
CACTCA | 3.49 ± 1.5 | 3.54 ± 0.36 | 5.18 ± 2
ATGACT | 1.54 ± 0.21 | 0.697 ± 0.028 | 1.64 ± 0.5
TGCCCG | 0.408 ± 0.37 |  | 1 ± 0.59
TAACGC | 3.03 ± 2.1 | 3 ± 0.12 | 3.59 ± 1.3
TGGAAG |  |  | 0.432 ± 0.24
TTATCA | 1.75 ± 0.34 | 2.22 ± 0.65 | 3.13 ± 1.6
ATAGAG |  | 0.485 ± 0.15 | 1.73 ± 0.23
GTCGCC | 4.34 ± 1.4 | 5.5 ± 0.42 | 
CGGTTC |  | 0.808 ± 0.75 | 0.718 ± 0.41
TTTGCA | 1.98 ± 1.2 | 1.94 ± 0.097 | 2.52 ± 0.96
TCAGCA | 1.49 ± 0.19 | 1.51 ± 0.79 | 2.22 ± 0.69
TAAATG |  | 0.29 ± 0.26 | 1.54 ± 0.35

Sequence | relative kcat/Km [1] | relative kcat/Km [2] | relative kcat/Km [3]
GTTCTT | 2.61 ± 1.8 | 2.49 ± 0.24 | 3.4 ± 1.2
CTCGGC |  |  | 1.23 ± 1.2
CCTTTA | 1.51 ± 0.63 | 1.47 ± 0.27 | 2.25 ± 0.99
GGAAAA | 1.64 ± 0.95 | 2.17 ± 0.57 | 2.77 ± 0.66
ACATCC | 2.97 ± 1.8 | 3.72 ± 0.33 | 4.37 ± 1.2
TCAGGT |  |  | 2.53 ± 2.4
GGATGA | 1.55 ± 1.2 | 2.3 ± 1.3 | 3.71 ± 1.9
AAGAGG | 0.842 ± 0.047 | 0.536 ± 0.26 | 1.0512 ± 0.001
CCTGAT | 0.672 ± 0.52 |  | 1.55 ± 1
GTTCTA | 1.83 ± 0.032 | 1.71 ± 0.31 | 2.36 ± 0.68
GTATCC | 2.97 ± 1.6 | 3.3 ± 0.46 | 3.72 ± 1.4
GTACCT | 1.69 ± 0.45 | 2.76 ± 0.68 | 2.94 ± 1.6
CCGAAG |  | 1.05 ± 0.22 | 1.44 ± 0.68
TTTCGT |  |  | 2.16 ± 1.8
TAGGGT |  |  | 1.75 ± 0.45
AACTTA | 2.69 ± 1.8 | 2.8 ± 0.12 | 3.83 ± 1.2
ACATGC | 1.8 ± 0.56 | 2.63 ± 0.62 | 3.57 ± 1.8
GGTTTT | 1.18 ± 0.64 | 1.22 ± 0.76 | 1.8 ± 0.68
ATTCCA | 2.17 ± 0.89 | 2.11 ± 0.63 | 1.93 ± 0.82
TTTTGG | 0.508 ± 0.012 |  | 0.844 ± 0.31
TATGAA | 2.69 ± 0.86 | 3.24 ± 0.39 | 4.07 ± 1.6
TCAGGA |  | 1.1 ± 1.1 | 1.19 ± 0.54
CAGTTA | 2.56 ± 0.33 | 2.7 ± 0.51 | 3.56 ± 1.1
CTCTAT | 4.59 ± 0.51 | 6.38 ± 1.7 | 
GCCAAA | 2.15 ± 0.18 | 2.72 ± 0.12 | 4.25 ± 0.74
GCCCAG | 0.499 ± 0.44 | 0.933 ± 0.79 | 3 ± 0.76

Sequence | relative kcat/Km [1] | relative kcat/Km [2] | relative kcat/Km [3]
TAGAAA | 1.9 ± 0.38 | 3.05 ± 1.1 | 4.51 ± 2
GCTGAA | 1.33 ± 0.8 | 0.99 ± 0.99 | 1.35 ± 0.59
CGTGTA | 0.848 ± 0.08 | 1.11 ± 0.36 | 1.02 ± 0.16
CGCTGC | 3.06 ± 0.66 | 2.86 ± 0.66 | 3.86 ± 1.2
GGCAGC | 1.55 ± 1.2 | 1.84 ± 0.44 | 3.11 ± 0.042
ATACCA | 0.754 ± 0.4 | 1.03 ± 0.38 | 1.46 ± 0.93
GGCTTG |  |  | 0.827 ± 0.34
CCTCTT | 2.21 ± 0.49 | 1.79 ± 0.48 | 2.21 ± 0.57
GGACCC | 1.64 ± 0.42 | 1.16 ± 0.014 | 1.33 ± 0.096
GACAAA | 4.01 ± 1.6 | 4.49 ± 0.5 | 6.91 ± 2.5
ATACTC | 1.56 ± 1.5 | 1.51 ± 0.52 | 1.59 ± 0.2
GAGATA | 1.56 ± 0.45 | 1.57 ± 0.58 | 1.89 ± 0.58
TTCAGT |  | 2.35 ± 1.7 | 3.37 ± 2.9
AAACTA | 1.54 ± 1.2 | 1.15 ± 0.42 | 1.33 ± 0.14
CCCATG |  | 0.298 ± 0.011 | 1.43 ± 0.93
CTTCAA | 3.2 ± 2.3 | 3.11 ± 0.12 | 3.96 ± 1.1
AGACCC | 2.19 ± 0.19 | 1.61 ± 1.1 | 2.21 ± 1.2
CCGAGC | 2.29 ± 0.63 | 1.29 ± 0.24 | 1.79 ± 0.18
ATTCAC | 3.25 ± 1.4 | 4.01 ± 0.31 | 5.85 ± 2.2
GGATCT | 1.18 ± 0.79 | 1.69 ± 0.9 | 2.17 ± 0.58
CTTAGC | 2.96 ± 1.3 | 3.29 ± 1.3 | 3.62 ± 0.95
GAGTAA | 2.22 ± 0.88 | 2.9 ± 0.51 | 3.73 ± 1.1
AAAACA | 1.07 ± 0.96 | 0.739 ± 0.38 | 1.09 ± 0.23
GATTGT | 0.637 ± 0.52 | 1.08 ± 1 | 
